# Experimental data published in the supplement of paper PMC8728848.
# The other results are listed elsewhere or left out.
# Columns and labels:
# Assay in all cases: glycan array binding signal (z-score within array); higher = stronger binding
# Details in all cases: glycan notation: IUPAC condensed, linker removed
# [1] = target: Fuc(a1-2)Gal6S(b1-3)GlcNAc6S
# In short: (§1)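 Arrays were curated from the Consortium for Functional Glycomics database, 3228 in total, and kept only where the protein sequence was available. Binding is expressed as a within-array Z-score. This score was averaged across arrays of the same protein sequence at different concentrations or buffers and across linkers, and negative values can be read as non-binding.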
# Fuc(a1-2)Gal6S(b1-4)Glc = target: Fuc(a1-2)Gal6S(b1-4)Glc
# In short: as §1
# [2] = target: Fuc(a1-2)Gal6S(b1-4)Glc6S
# In short: as §1
# Fuc(a1-2)[Gal(a1-3)]Gal = target: Fuc(a1-2)[Gal(a1-3)]Gal
# In short: as §1
# [3] = target: Fuc(a1-2)[Gal(a1-3)]Gal(b1-3)GalNAc
# In short: as §1
# [4] = target: Fuc(a1-2)[Gal(a1-3)]Gal(b1-3)GalNAc(b1-3)Gal(a1-4)Gal(b1-4)Glc
# In short: as §1
# [5] = target: Fuc(a1-2)[Gal(a1-3)]Gal(b1-3)GlcNAc
# In short: as §1
# [6] = target: Fuc(a1-2)[Gal(a1-3)]Gal(b1-3)GlcNAc(b1-2)Man(a1-3)[Fuc(a1-2)[Gal(a1-3)]Gal(b1-3)GlcNAc(b1-2)Man(a1-6)]Man(b1-4)GlcNAc(b1-4)GlcNAc
# In short: as §1
# [7] = target: Fuc(a1-2)[Gal(a1-3)]Gal(b1-3)GlcNAc(b1-2)Man(a1-3)[Fuc(a1-2)[Gal(a1-3)]Gal(b1-3)GlcNAc(b1-2)Man(a1-6)]Man(b1-4)GlcNAc(b1-4)[Fuc(a1-6)]GlcNAc
# In short: as §1
# [8] = target: Fuc(a1-2)[Gal(a1-3)]Gal(b1-3)GlcNAc(b1-3)GalNAc
# In short: as §1
# [9] = target: Fuc(a1-2)[Gal(a1-3)]Gal(b1-3)GlcNAc(b1-6)GalNAc
# In short: as §1
# [10] = target: Fuc(a1-2)[Gal(a1-3)]Gal(b1-4)Glc
# In short: as §1
# [11] = target: Fuc(a1-2)[Gal(a1-3)]Gal(b1-4)GlcNAc
# In short: as §1
# [12] = target: Fuc(a1-2)[Gal(a1-3)]Gal(b1-4)GlcNAc(b1-2)Man
# In short: as §1
# [13] = target: Fuc(a1-2)[Gal(a1-3)]Gal(b1-4)GlcNAc(b1-2)Man(a1-3)[Fuc(a1-2)[Gal(a1-3)]Gal(b1-4)GlcNAc(b1-2)Man(a1-6)]Man(b1-4)GlcNAc(b1-4)GlcNAc
# In short: as §1
# [14] = target: Fuc(a1-2)[Gal(a1-3)]Gal(b1-4)GlcNAc(b1-2)Man(a1-3)[Fuc(a1-2)[Gal(a1-3)]Gal(b1-4)GlcNAc(b1-2)Man(a1-6)]Man(b1-4)GlcNAc(b1-4)[Fuc(a1-6)]GlcNAc
# In short: as §1
# [15] = target: Fuc(a1-2)[Gal(a1-3)]Gal(b1-4)GlcNAc(b1-3)GalNAc
# In short: as §1
# [16] = target: Fuc(a1-2)[Gal(a1-3)]Gal(b1-4)GlcNAc(b1-3)[Fuc(a1-2)[Gal(a1-3)]Gal(b1-4)GlcNAc(b1-6)]GalNAc
# In short: as §1
# [17] = target: Fuc(a1-2)[Gal(a1-3)]Gal(b1-4)GlcNAc(b1-6)GalNAc
# In short: as §1
# [18] = target: Fuc(a1-2)[Gal(a1-3)]Gal(b1-4)[Fuc(a1-3)]Glc
# In short: as §1
# [19] = target: Fuc(a1-2)[Gal(a1-3)]Gal(b1-4)[Fuc(a1-3)]GlcNAc
# In short: as §1
# [20] = target: Fuc(a1-2)[Gal(a1-3)]Gal(b1-4)[Fuc(a1-3)]GlcNAc(b1-3)GalNAc
# In short: as §1
# [21] = target: Fuc(a1-2)[Gal(a1-4)]Gal(b1-4)GlcNAc
# In short: as §1
# [22] = target: Fuc(a1-2)[GalNAc(a1-3)]Gal
# In short: as §1
# [23] = target: Fuc(a1-2)[GalNAc(a1-3)]Gal(b1-3)GalNAc(a1-3)[Fuc(a1-2)]Gal(b1-4)GlcNAc
# In short: as §1
# [24] = target: Fuc(a1-2)[GalNAc(a1-3)]Gal(b1-3)GalNAc(b1-3)Gal(a1-4)Gal(b1-4)Glc
# In short: as §1
# [25] = target: Fuc(a1-2)[GalNAc(a1-3)]Gal(b1-3)GlcNAc
# In short: as §1
# [26] = target: Fuc(a1-2)[GalNAc(a1-3)]Gal(b1-3)GlcNAc(b1-2)Man(a1-3)[Fuc(a1-2)[GalNAc(a1-3)]Gal(b1-3)GlcNAc(b1-2)Man(a1-6)]Man(b1-4)GlcNAc(b1-4)GlcNAc
# In short: as §1
# [27] = target: Fuc(a1-2)[GalNAc(a1-3)]Gal(b1-3)GlcNAc(b1-2)Man(a1-3)[Fuc(a1-2)[GalNAc(a1-3)]Gal(b1-3)GlcNAc(b1-2)Man(a1-6)]Man(b1-4)GlcNAc(b1-4)[Fuc(a1-6)]GlcNAc
# In short: as §1
# [28] = target: Fuc(a1-2)[GalNAc(a1-3)]Gal(b1-3)GlcNAc(b1-3)GalNAc
# In short: as §1
# [29] = target: Fuc(a1-2)[GalNAc(a1-3)]Gal(b1-3)GlcNAc(b1-6)GalNAc
# In short: as §1
# [30] = target: Fuc(a1-2)[GalNAc(a1-3)]Gal(b1-4)Glc
# In short: as §1
# [31] = target: Fuc(a1-2)[GalNAc(a1-3)]Gal(b1-4)GlcNAc
# In short: as §1
# [32] = target: Fuc(a1-2)[GalNAc(a1-3)]Gal(b1-4)GlcNAc(b1-2)Man
# In short: as §1
# [33] = target: Fuc(a1-2)[GalNAc(a1-3)]Gal(b1-4)GlcNAc(b1-2)Man(a1-3)[Fuc(a1-2)[GalNAc(a1-3)]Gal(b1-4)GlcNAc(b1-2)Man(a1-6)]Man(b1-4)GlcNAc(b1-4)GlcNAc
# In short: as §1
# [34] = target: Fuc(a1-2)[GalNAc(a1-3)]Gal(b1-4)GlcNAc(b1-2)Man(a1-3)[Fuc(a1-2)[GalNAc(a1-3)]Gal(b1-4)GlcNAc(b1-2)Man(a1-6)]Man(b1-4)GlcNAc(b1-4)[Fuc(a1-6)]GlcNAc
# In short: as §1
# [35] = target: Fuc(a1-2)[GalNAc(a1-3)]Gal(b1-4)GlcNAc(b1-3)Gal(b1-4)GlcNAc
# In short: as §1
# [36] = target: Fuc(a1-2)[GalNAc(a1-3)]Gal(b1-4)GlcNAc(b1-3)Gal(b1-4)GlcNAc(b1-3)Gal(b1-4)GlcNAc
# In short: as §1
# [37] = target: Fuc(a1-2)[GalNAc(a1-3)]Gal(b1-4)GlcNAc(b1-3)GalNAc
# In short: as §1
# [38] = target: Fuc(a1-2)[GalNAc(a1-3)]Gal(b1-4)GlcNAc(b1-3)[Fuc(a1-2)[GalNAc(a1-3)]Gal(b1-4)GlcNAc(b1-6)]GalNAc
# In short: as §1
# [39] = target: Fuc(a1-2)[GalNAc(a1-3)]Gal(b1-4)GlcNAc(b1-6)GalNAc
# In short: as §1
# [40] = target: Fuc(a1-2)[GalNAc(a1-3)]Gal(b1-4)[Fuc(a1-3)]GlcNAc
# In short: as §1
# [41] = target: Fuc(a1-2)[GalNAc(a1-3)]Gal(b1-4)[Fuc(a1-3)]GlcNAc(b1-3)GalNAc
# In short: as §1
# [42] = target: Fuc(a1-2)[GalNAc(a1-4)]Gal(b1-4)GlcNAc
# In short: as §1
# [43] = target: Fuc(a1-2)[GalNAc(b1-3)]Gal
# In short: as §1
binder,measurement,setting,value
EULS2 M4 (Oryza sativa) (protein) MVYCRANPNYAMTARNGAVVLAPANPKDEYQHWIKDMRWSTSIKDEEGYPAFALVNKATGQAIKHSLGQSHPVRLVPYNPEVMDESVLWTESRDVGNGFRCIRMVNNIYLNFDAFHGDKYHGGVRDGTDIVLWKWCEGDSLRWKIQPYYILEQKLISEEDLNSAVDHHHHHH,glycan array binding signal (z-score),[1],-0.078
same,glycan array binding signal (z-score),Fuc(a1-2)Gal6S(b1-4)Glc,-0.539
same,glycan array binding signal (z-score),[2],1.14
same,glycan array binding signal (z-score),Fuc(a1-2)[Gal(a1-3)]Gal,-0.474
same,glycan array binding signal (z-score),[3],-0.015
same,glycan array binding signal (z-score),[4],-0.596
same,glycan array binding signal (z-score),[5],0.663
same,glycan array binding signal (z-score),[6],-0.597
same,glycan array binding signal (z-score),[7],-0.336
same,glycan array binding signal (z-score),[8],0.259
same,glycan array binding signal (z-score),[9],-0.272
same,glycan array binding signal (z-score),[10],1.83
same,glycan array binding signal (z-score),[11],-0.032
same,glycan array binding signal (z-score),[12],-0.562
same,glycan array binding signal (z-score),[13],-0.435
same,glycan array binding signal (z-score),[14],-0.402
same,glycan array binding signal (z-score),[15],-0.467
same,glycan array binding signal (z-score),[16],1.24
same,glycan array binding signal (z-score),[17],-0.289
same,glycan array binding signal (z-score),[18],-0.09
same,glycan array binding signal (z-score),[19],1.49
same,glycan array binding signal (z-score),[20],1.57
same,glycan array binding signal (z-score),[21],0.658
same,glycan array binding signal (z-score),[22],-0.348
same,glycan array binding signal (z-score),[23],0.21
same,glycan array binding signal (z-score),[24],-0.473
same,glycan array binding signal (z-score),[25],0.527
same,glycan array binding signal (z-score),[26],0.515
same,glycan array binding signal (z-score),[27],-0.456
same,glycan array binding signal (z-score),[28],-0.261
same,glycan array binding signal (z-score),[29],1
same,glycan array binding signal (z-score),[30],-0.23
same,glycan array binding signal (z-score),[31],-0.045
same,glycan array binding signal (z-score),[32],-0.183
same,glycan array binding signal (z-score),[33],-0.504
same,glycan array binding signal (z-score),[34],2.32
same,glycan array binding signal (z-score),[35],-0.459
same,glycan array binding signal (z-score),[36],-0.378
same,glycan array binding signal (z-score),[37],-0.304
same,glycan array binding signal (z-score),[38],-0.38
same,glycan array binding signal (z-score),[39],-0.305
same,glycan array binding signal (z-score),[40],-0.416
same,glycan array binding signal (z-score),[41],-0.529
same,glycan array binding signal (z-score),[42],-0.407
same,glycan array binding signal (z-score),[43],0.02
